Assay results: the supplement of paper PMC8728848
Some of the results follow.

How the values were obtained:
Experiment in all cases: glycan array binding signal (z-score within array); higher = stronger binding
Conditions in all cases: glycan notation: IUPAC condensed, linker removed
[1] = target: Fuc(a1-2)Gal(b1-4)GlcNAc(b1-3)Gal(b1-4)GlcNAc(b1-2)Man(a1-3)[Fuc(a1-2)Gal(b1-4)GlcNAc(b1-3)Gal(b1-4)GlcNAc(b1-2)Man(a1-6)]Man(b1-4)GlcNAc(b1-4)GlcNAc
Summary of the method: (§1)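 The binding signal is a Z-score computed within each array. Data were drawn from 3228 arrays in the Consortium for Functional Glycomics database, restricted to those with a known protein sequence. Scores were averaged over arrays of the same protein sequence at different concentrations or buffers, and over linkers, and negative values can be taken as non-binding.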

[2] = target: Fuc(a1-2)Gal(b1-4)GlcNAc(b1-3)Gal(b1-4)GlcNAc(b1-3)Gal(b1-4)GlcNAc
Summary of the method: as §1

[3] = target: Fuc(a1-2)Gal(b1-4)GlcNAc(b1-3)GalNAc
Summary of the method: as §1

[4] = target: Fuc(a1-2)Gal(b1-4)GlcNAc(b1-3)[Fuc(a1-2)Gal(b1-4)GlcNAc(b1-6)]GalNAc
Summary of the method: as §1

[5] = target: Fuc(a1-2)Gal(b1-4)GlcNAc(b1-3)[Fuc(a1-3)[Gal(b1-4)]GlcNAc(b1-6)]Gal(b1-4)Glc
Summary of the method: as §1

[6] = target: Fuc(a1-2)Gal(b1-4)GlcNAc(b1-6)GalNAc
Summary of the method: as §1

[7] = target: Fuc(a1-2)Gal(b1-4)GlcNAc6S
Summary of the method: as §1

[8] = target: Fuc(a1-2)Gal(b1-4)[Fuc(a1-3)]GlcNAc
Summary of the method: as §1

[9] = target: Fuc(a1-2)Gal(b1-4)[Fuc(a1-3)]GlcNAc(b1-2)Man(a1-3)[Fuc(a1-2)Gal(b1-4)[Fuc(a1-3)]GlcNAc(b1-2)Man(a1-6)]Man(b1-4)GlcNAc(b1-4)[Fuc(a1-6)]GlcNAc
Summary of the method: as §1

[10] = target: Fuc(a1-2)Gal(b1-4)[Fuc(a1-3)]GlcNAc(b1-2)[Fuc(a1-2)Gal(b1-4)[Fuc(a1-3)]GlcNAc(b1-4)]Man(a1-3)[Fuc(a1-2)Gal(b1-4)[Fuc(a1-3)]GlcNAc(b1-2)Man(a1-6)]Man(b1-4)GlcNAc(b1-4)GlcNAc
Summary of the method: as §1

[11] = target: Fuc(a1-2)Gal(b1-4)[Fuc(a1-3)]GlcNAc(b1-3)Gal(b1-4)[Fuc(a1-3)]GlcNAc
Summary of the method: as §1

[12] = target: Fuc(a1-2)Gal(b1-4)[Fuc(a1-3)]GlcNAc(b1-3)Gal(b1-4)[Fuc(a1-3)]GlcNAc(b1-3)Gal(b1-4)[Fuc(a1-3)]GlcNAc
Summary of the method: as §1

[13] = target: Fuc(a1-2)Gal(b1-4)[Fuc(a1-3)]GlcNAc(b1-3)GalNAc
Summary of the method: as §1

[14] = target: Fuc(a1-2)Gal(b1-4)[Fuc(a1-3)]GlcNAc(b1-3)[Neu5Ac(a2-6)Gal(b1-4)GlcNAc(b1-6)]Gal(b1-4)Glc
Summary of the method: as §1

[15] = target: Fuc(a1-2)Gal3S(b1-4)GlcNAc
Summary of the method: as §1

[16] = target: Fuc(a1-2)Gal6S(b1-3)GlcNAc
Summary of the method: as §1

[17] = target: Fuc(a1-2)Gal6S(b1-3)GlcNAc6S
Summary of the method: as §1

Fuc(a1-2)Gal6S(b1-4)Glc = target: Fuc(a1-2)Gal6S(b1-4)Glc
Summary of the method: as §1

[18] = target: Fuc(a1-2)Gal6S(b1-4)Glc6S
Summary of the method: as §1

Fuc(a1-2)[Gal(a1-3)]Gal = target: Fuc(a1-2)[Gal(a1-3)]Gal
Summary of the method: as §1

[19] = target: Fuc(a1-2)[Gal(a1-3)]Gal(b1-3)GalNAc
Summary of the method: as §1

[20] = target: Fuc(a1-2)[Gal(a1-3)]Gal(b1-3)GalNAc(b1-3)Gal(a1-4)Gal(b1-4)Glc
Summary of the method: as §1

[21] = target: Fuc(a1-2)[Gal(a1-3)]Gal(b1-3)GlcNAc
Summary of the method: as §1

[22] = target: Fuc(a1-2)[Gal(a1-3)]Gal(b1-3)GlcNAc(b1-2)Man(a1-3)[Fuc(a1-2)[Gal(a1-3)]Gal(b1-3)GlcNAc(b1-2)Man(a1-6)]Man(b1-4)GlcNAc(b1-4)GlcNAc
Summary of the method: as §1

[23] = target: Fuc(a1-2)[Gal(a1-3)]Gal(b1-3)GlcNAc(b1-2)Man(a1-3)[Fuc(a1-2)[Gal(a1-3)]Gal(b1-3)GlcNAc(b1-2)Man(a1-6)]Man(b1-4)GlcNAc(b1-4)[Fuc(a1-6)]GlcNAc
Summary of the method: as §1

[24] = target: Fuc(a1-2)[Gal(a1-3)]Gal(b1-3)GlcNAc(b1-3)GalNAc
Summary of the method: as §1

[25] = target: Fuc(a1-2)[Gal(a1-3)]Gal(b1-3)GlcNAc(b1-6)GalNAc
Summary of the method: as §1

[26] = target: Fuc(a1-2)[Gal(a1-3)]Gal(b1-4)Glc
Summary of the method: as §1

[27] = target: Fuc(a1-2)[Gal(a1-3)]Gal(b1-4)GlcNAc
Summary of the method: as §1

[28] = target: Fuc(a1-2)[Gal(a1-3)]Gal(b1-4)GlcNAc(b1-2)Man
Summary of the method: as §1

B1: LFA (Limax flavus) (protein)
chain: MSVLFLAASFLLLASFELVAAQGCPRQDPGDWIVIQRRLNADVNFYRGWADYKHGFGDLRCNFWLGNEKIHQLTSHGRYKLRVEFTFNNKSYFAEYSTFKILGEADKYKLQVGGYSGNAGDALTFHNGMAFSTNDRDNDADSIDCAKVYHGAWWYKTCHESNLNGKWGSKKYGEGLNWKAKTTFTATATSSLLKIKALK
Question: What does the source list for B1?
Answer: glycan array binding signal (z-score) [1]: -0.088; glycan array binding signal (z-score) [2]: -0.269; glycan array binding signal (z-score) [3]: -0.197; glycan array binding signal (z-score) [4]: -0.186; glycan array binding signal (z-score) [5]: -0.28; glycan array binding signal (z-score) [6]: -0.085; glycan array binding signal (z-score) [7]: -0.341; glycan array binding signal (z-score) [8]: -0.201; glycan array binding signal (z-score) [9]: -0.216; glycan array binding signal (z-score) [10]: 0.408; glycan array binding signal (z-score) [11]: -0.189; glycan array binding signal (z-score) [12]: -0.241; glycan array binding signal (z-score) [13]: -0.161; glycan array binding signal (z-score) [14]: -0.17; glycan array binding signal (z-score) [15]: -0.304; glycan array binding signal (z-score) [16]: -0.302; glycan array binding signal (z-score) [17]: 0.063; glycan array binding signal (z-score) (Fuc(a1-2)Gal6S(b1-4)Glc): -0.252; glycan array binding signal (z-score) [18]: -0.273; glycan array binding signal (z-score) (Fuc(a1-2)[Gal(a1-3)]Gal): -0.258; glycan array binding signal (z-score) [19]: -0.267; glycan array binding signal (z-score) [20]: -0.323; glycan array binding signal (z-score) [21]: 0.004; glycan array binding signal (z-score) [22]: -0.303; glycan array binding signal (z-score) [23]: 0.041; glycan array binding signal (z-score) [24]: -0.31; glycan array binding signal (z-score) [25]: -0.214; glycan array binding signal (z-score) [26]: -0.275; glycan array binding signal (z-score) [27]: -0.295; glycan array binding signal (z-score) [28]: -0.312
